Measured values taken from the supplement of paper PMC7125110.
± gives the standard error. This sample is rich in variants without activity.

B1: glmS ribozyme (parent)
chain: AUAAAAGCGCCAGAACUACAGAAAUGUAGUUGACGAGGAGGAGGUUUAUCGAAUUUUCGGCGGAUGCCUCCAAA

What was measured:
Details in all cases: with glucosamine-6-phosphate
glucosamine-6-phosphate [1] = variants of: B1; assay: self-cleavage kobs at 40 uM GlcN6P; higher = faster cleavage; RNA array
Summary of the method: (§1)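 Weighted Michaelis–Menten fits across concentrations supplied kcat and KM, based on kobs from one- or two-exponential decay fits to normalised per-tile medians. The data came from barcoded ribozyme variants transcribed in situ by E. coli RNA polymerase on sequenced MiSeq chips and tracked at 37 °C by a hybridised Cy3 probe. Glucosamine-6-phosphate (40 μM to 10 mM) in HEPES/KCl/Mg(OAc)2 buffer was flowed in.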

glucosamine-6-phosphate [2] = variants of: B1; assay: self-cleavage kobs at 2500 uM GlcN6P; higher = faster cleavage; RNA array
Summary of the method: as §1

glucosamine-6-phosphate [3] = variants of: B1; assay: self-cleavage kobs at 10000 uM GlcN6P; higher = faster cleavage; RNA array
Summary of the method: as §1

glucosamine-6-phosphate [4] = variants of: B1; assay: self-cleavage kobs at 640 uM GlcN6P; higher = faster cleavage; RNA array
Summary of the method: as §1

glucosamine-6-phosphate [5] = variants of: B1; assay: self-cleavage kobs at 160 uM GlcN6P; higher = faster cleavage; RNA array
Summary of the method: as §1

Row | Variant | self-cleavage kobs at 40 uM GlcN6P (glucosamine-6-phosphate [1]) [s⁻¹] | self-cleavage kobs at 2500 uM GlcN6P (glucosamine-6-phosphate [2]) [s⁻¹] | self-cleavage kobs at 10000 uM GlcN6P (glucosamine-6-phosphate [3]) [s⁻¹] | self-cleavage kobs at 640 uM GlcN6P (glucosamine-6-phosphate [4]) [s⁻¹] | self-cleavage kobs at 160 uM GlcN6P (glucosamine-6-phosphate [5]) [s⁻¹]
1 | AUAAAAGCGCCAGAACUACAGAAAUGUAGUUGACGAGGAGGAGGGUUAUCGAAUUUUUGGCGGAUGCCUCCAAA [U45G C58U] | < 1e-05 | – | – | – | –
2 | AUAAAAGCGCCAGAACUACAGAAAUGUAGUUGACGAGGAGGCGGUUUAUCGAAUUUUCGGCGAAUGGCUCCAAA [A42C G63A C67G] | < 1e-05 | – | – | – | –
3 | AUAAAAGCGCCAGAACUACAGAAAUGUAGUUGACGAGGAGUAGGUUUAACGAAUGUUCGGCGGAUGCCUCCAAA [G41U U49A U55G] | < 1e-05 | < 1e-05 | < 1e-05 | – | –
4 | AUAAAAGCGCCAGAACUACAGAAAUGUAGUUGACGAGGAGGAUGUUUAUAGAAUUUUCGGCGGAUGCCUCCAAA [G43U C50A] | < 1e-05 | – | < 1e-05 | < 1e-05 | < 1e-05
5 | AUAAAAGCGCCAGAACUACAGAAAUGUAGUUGACGAGGAGGGGGUUUAUCGAAUUUUCGGCGGAUGUAUACAAA [A42G C67U C68A C70A] | < 1e-05 | – | – | – | –
6 | AUAAAAGCGCCAGAACUACAGAAAUGUAGUUGACGAGGAGGAGAUUUAUCGAAUUUACGGCGGAUGCCUCCAAA [G44A U57A] | < 1e-05 | < 1e-05 | – | < 1e-05 | –
7 | AUAAAAGCGCCAGAACUACAGAAAUGUAGUUGACGAGGAGGAGCUUUAUCUAAUUUUCGGCGGAUGGCACGAAA [G44C G51U C67G U69A C71G] | < 1e-05 | – | – | – | –
8 | AUAAAAGCGCCAGAACUACAGAAAUGUAGUUGACGAGGAGGAGCUUUAUCGAAAUUACGGCGGAGGCCGCCAAA [G44C U54A U57A U65G U69G] | < 1e-05 | – | < 1e-05 | – | –
9 | AUAAAAGCGCCAGAACUACAGAAAUGUAGUUGACGAGGAGGAGGGUUAUCGAAUUUUCGGCGUAUGCCUCCAAA [U45G G63U] | < 1e-05 | – | – | – | –
10 | AUAAAAGCGCCAGAACUACAGAAAUGUAGUUGACGAGGAGGCGGUUUAUCGAAUUUUCGGCUGAUGCCUGCAAA [A42C G62U C70G] | < 1e-05 | – | < 1e-05 | – | –
11 | AUAAAAGCGCCAGAACUACAGAAAUGUAGUUGACGAGGAGGAGGCUUAUCGAAUUUUCGGCGGAUGCAUCCAAA [U45C C68A] | < 1e-05 | – | – | – | –
12 | AUAAAAGCGCCAGAACUACAGAAAUGUAGUUGACGAGGAGGAGGGUUAUCGAAUUUUCGGCGGAUGCCACCAAA [U45G U69A] | 0.000333 ± 8.4e-05 | 0.000589 ± 0.00025 | 0.000362 ± 7.9e-05 | – | –
13 | AUAAAAGCGCCAGAACUACAGAAAUGUAGUUGACGAGGAGGUGGUUUAGCGACUUUUCGGCGGGUGCCUCCAAA [A42U U49G A53C A64G] | < 1e-05 | – | – | – | –
14 | AUAAAAGCGCCAGAACUACAGAAAUGUAGUUGACGAGGAGGCGGUUUAUCGAAUUUUCGGCGGAUUCCUCCAAA [A42C G66U] | < 1e-05 | – | – | – | –
15 | AUAAAAGCGCCAGAACUACAGAAAUGUAGUUGACGAGGAGGGGGUUUAUCGCAUUUUCGGCGGAUGCCUCCAAA [A42G A52C] | < 1e-05 | – | – | – | –
16 | AUAAAAGCGCCAGAACUACAGAAAUGUAGUUGACGAGGAGGAGAUUUAUCGAAUUUUCAGUGGAUGCCUCCAAA [G44A G59A C61U] | < 1e-05 | < 1e-05 | < 1e-05 | < 1e-05 | –

Row | Variant | self-cleavage kobs at 40 uM GlcN6P (glucosamine-6-phosphate [1]) [s⁻¹] | self-cleavage kobs at 2500 uM GlcN6P (glucosamine-6-phosphate [2]) [s⁻¹] | self-cleavage kobs at 10000 uM GlcN6P (glucosamine-6-phosphate [3]) [s⁻¹] | self-cleavage kobs at 640 uM GlcN6P (glucosamine-6-phosphate [4]) [s⁻¹] | self-cleavage kobs at 160 uM GlcN6P (glucosamine-6-phosphate [5]) [s⁻¹]
17 | AUAAAAGCGCCAGAACUACAGAAAUGUAGUUGACGAGGAGGAGCUUUACCGAAUUUUCGGCGGAUGCCUCCAAA [G44C U49C] | < 1e-05 | – | – | – | –
18 | AUAAAAGCGCCAGAACUACAGAAAUGUAGUUGACGAGGAGGACGUUUUUCGAAUUUUCGGCGGAUGCCUCCAAA [G43C A48U] | < 1e-05 | < 1e-05 | < 1e-05 | < 1e-05 | –
19 | AUAAAAGCGCCAGAACUACAGAAAUGUAGUUGACGAGGAGGUGGUUUAUCGAAUUUUCGGCGUAUGCCUCCAAA [A42U G63U] | < 1e-05 | < 1e-05 | < 1e-05 | – | < 1e-05
20 | AUAAAAGCGCCAGAACUACAGAAAUGUAGUUGACGAGGAGGUGGUUUAUCGAAUUUUCGGCGGAUGCCUCUAAA [A42U C71U] | < 1e-05 | 0.000122 ± 1.6e-05 | 0.000129 ± 1.4e-05 | 4.75e-05 ± 6.4e-06 | –
21 | AUAAAAGCGCCAGAACUACAGAAAUGUAGUUGACGAGGAGGAGUUUUAUCGAAUUUUCGGCGGAAGCCUCCAAA [G44U U65A] | < 1e-05 | – | – | – | –
22 | AUAAAAGCGCCAGAACUACAGAAAUGUAGUUGACGAGGAGGAUGUUUAUCGAAUUUUCGGCGGAUUCCUCCAAA [G43U G66U] | < 1e-05 | – | < 1e-05 | – | < 1e-05
23 | AUAAAAGCGCCAGAACUACAGAAAUGUAGUUGACGAGGAGGAUGCAUAUCGAAUCUUCGGCGGAUGCCUCCAAA [G43U U45C U46A U55C] | < 1e-05 | – | – | – | –
24 | AUAAAAGCGCCAGAACUACAGAAAUGUAGUUGACGAGGAGGAGGAUUAUCGAAUUUUCGGUGGAUGCCUCCAAA [U45A C61U] | < 1e-05 | – | – | – | –
25 | AUAAAAGCGCCAGAACUACAGAAAUGUAGUUGACGAGGAGGGGGUUUAUCAUAUUUUCGGCGGAUGCCUCCAAA [A42G G51A A52U] | < 1e-05 | < 1e-05 | – | – | –
26 | AUAAAAGCGCCAGAACUACAGAAAUGUAGUUGACGAGGAGGAGGCUUAUCGAAUUUUCGGCGGCUGCCUCCAAA [U45C A64C] | < 1e-05 | – | – | < 1e-05 | < 1e-05
27 | AUAAAAGCGCCAGAACUACAGAAAUGUAGUUGACGAGGAGGAGGCUUAUCGCAUUUUCGGCGGAGGCCUCCAAA [U45C A52C U65G] | < 1e-05 | – | < 1e-05 | – | –
28 | AUAAAAGCGCCAGAACUACAGAAAUGUAGUUGACGAGGAGGACGUUUAUCGAAUUUGCGGCGGAUGCCUCCAAA [G43C U57G] | < 1e-05 | < 1e-05 | < 1e-05 | < 1e-05 | –
29 | AUAAAAGCGCCAGAACUACAGAAAUGUAGUUGACGAGGAGUAGGUUUAUCGAAUUUUAGGCGGAUGUCUCCAAA [G41U C58A C67U] | < 1e-05 | – | < 1e-05 | – | –
30 | AUAAAAGCGCCAGAACUACAGAAAUGUAGUUGACGAGGAGGGGGUUUAUCGAAUCUUCGGCGGAUGCCUCCAAA [A42G U55C] | 0.000832 ± 0.00014 | 0.0354 ± 0.016 | 0.0147 ± 0.0029 | 0.0147 ± 0.0051 | 0.00147 ± 0.00063
31 | AUAAAAGCGCCAGAACUACAGAAAUGUAGUUGACGAGGAGGAGAUCUAUCGAAUUUUCGGCGGAUGCCUCCAAA [G44A U46C] | < 1e-05 | < 1e-05 | – | < 1e-05 | –
32 | AUAAAAGCGCCAGAACUACAGAAAUGUAGUUGACGAGGAGGAAGUUUAUCGAAUUUCCGGCGGAUGCCUCCAAA [G43A U57C] | < 1e-05 | – | < 1e-05 | < 1e-05 | < 1e-05
